To fix the notation:
B1: OR4K15 (parent)
chain: GUUAACGGUCAUAGGCCAUGGAAACUAGGAGCACCAUUUCGCUGCCAGUGAAGAAAUGAACAAAGAAAAUCUGGGCCAGGCAGGCAUCAAAAGAAAUAGUCUUGCGCUCAACCAGAAAGUCUGUAAUCAUUUUAAGGGUA

The source gives no read counts; variants with many changes may rest on few reads.

Variants of B1 are the subject of the data set. The data set can be described thus: self-cleavage, relative activity (ratio to wild type); higher = more cleavage; in vitro, sequencing; the parent is a self-cleaving ribozyme.
For the variant U38C A54U A68G U100C, the self-cleavage amounted to 2.33. The same measure for U38C A96U G136U: 0.93; for U37C A51G A91G U131C: 0.56. Take A36U A56G A117G U133A: the self-cleavage came out at 1.24.

Turning to U38C A67G A95G U120C, the self-cleavage was determined as 1.6. On to U37C A96G U120A, for which the self-cleavage was 1.69. For the variant U38C A63G U70C A96G, the self-cleavage came out at 1.28. Consider A36U A60G A68G, for which the self-cleavage stood at 0.82. For the variant U38C A68U U72A, the self-cleavage was determined as 0.39. The same measure for U37C U57C G65A U108C: 0.01; for U37C G93U C128U: 2.12.

In the case of U37C A52U A55G U108A, the self-cleavage is 0.04.

Consider U37C U49A A63U, for which the self-cleavage was 1.17. Regarding A36U A62G C71A A91G, the self-cleavage was determined as 0.44. In the case of U37C A47G U108C, the self-cleavage came to 0.

U38C A47G A82U: the self-cleavage came to 0.06.

In the case of U38C C71U A96G U102C A111G, the self-cleavage came out at 0.04. The same measure for A36U A52G A54G: 1.54. U37C A55G A69G: the self-cleavage turned out to be 1.42. The same measure for U37C A69G G74A: 0.15; for U38C A47U U127C: 0.48. For U37C A90G U108C the value was 0.02; for U37C U70A U127C, 0.37; for U38C A63G A89C A117G, 1.59. The same measure for U37C A62U G79A U108C U122A A134G: 0.01; for U37G U87C A94G A117G U122C: 0.43; for U38C A55G A95G U100C: 2.64. As to U37C A90G U100C U108C, the self-cleavage came to 0.1. For U38A A89G A125G A134G the value was 0.34. Regarding U37C U49C A69U A78G, the self-cleavage was determined as 0.22. The same measure for U37C A92G A110G: 0.1. For U38C A60U A82U U131C the value was 0.24. For the variant U38C A64G A67G A82U U87C U120C, the self-cleavage stood at 0.11. As for U37C U57C A60U A114C, the self-cleavage was determined as 0.02. For U38A A59G U103C the value was 1. For U38C A56G U130C the value was 1.85; for U37C U70A A96G U102C C105U U122G, 0.44. The same measure for U38A A91G U122A: 0.95; for U37C A54G G79U U120C: 0.05; for U38A A52G A60G: 1.1. In the case of U37G U87C A98G U103C, the self-cleavage worked out at 0.09.

For the variant A36U U43C A52G A62G, the self-cleavage came to 1.54. Regarding U38A C77U A82U, the self-cleavage stood at 0.34. For U37C A62G A117G the value was 0.88; for U38C A68G A82G A86G, 0.49; for U38C A92G A111G, 0.02. The same measure for U37A A59G U108G A118G: 0; for U38C C46U U108C A110G: 0.01; for U38C A63G A110G U122C: 0.2. For U38C A68G A78U A82U U127C the value was 0.07; for A36U A96G U127A, 2.44. As for U38C A59G U124C, the self-cleavage amounted to 0.61. On to U37C U49C A82U U122A, for which the self-cleavage was 0.15. For A36U A114G A126G the value was 0.38; for U38C G83U U100A G123A U127C, 0.04. Turning to U37C U38C A56C U57A A126G, the self-cleavage is 0.35. Turning to U37C U38C U49G, the self-cleavage stood at 0.86. Turning to U37C U39C C46U A126U, the self-cleavage is 0.9. The same measure for U37C A63G A78U A129G: 0.26. The same measure for U37A A56G A117U G136A: 1.31; for U37C G75A A140G: 0.07; for U37C G48A A60G A64G: 0.8. The same measure for U38C A62C A92G G123A: 2.07. As to A36U A118G C128U U130C, the self-cleavage came out at 1.07. The same measure for A36U U122C A140G: 1.7; for U38A A66G U122G: 2.89; for U38C G84A U87C A91G C101G: 0.11.

Take U37C A86G A96G: the self-cleavage worked out at 1.81. U38C A55G G74A U122C: the self-cleavage came out at 0.17. The same measure for U37C A56G U133G: 2.23; for A36U U49C A95U: 0.62; for A36U A68G U102A: 0.89. The same measure for U37C A54G A110G: 0.1; for U37C A68G A78G: 0.16; for U37A U38C U57A A64G: 1.51. The same measure for U37C U57C A69U: 1.7.

Consider U38C A64G U70C U102C, for which the self-cleavage worked out at 2.16.

Turning to A36U A92G A95G C105U, the self-cleavage was 0.86.

As for U37C A86U A91G A94G G99A U102A G106C A117G, the self-cleavage is 0.01.

U37C A68G A110G: the self-cleavage amounted to 0.12. The same measure for U37C U49C U87A: 1.29; for U37C A110G U131C: 0.05. With U38C C40U U108C A110U, the self-cleavage came to 0.01.
